According to patent US20140031278A1, “Novel Glucagon Analogues” (NOVO NORDISK A/S, priority 2011, published 2014):
At least one compound was matched to its structure with a doubt left.

Experiment: ThT fibrillation assay for physical stability (lag time, recovery)
Assay type: physicochemical
Settings: for ThT assay [Lag time]: absence of increased ThT fluorescence noted as lag time of 45 hours; for ThT assay [Recovery]: peptide concentration in filtered supernatant after ThT assay as percentage of initial
Description: This has traditionally been measured by visual inspection of the sample. However, that kind of measurement is very subjective and depending on the observer. Therefore, the application of a small molecule indicator probe is much more advantageous. […] Enzymol.
Here, F is the ThT fluorescence at the time t.
The lag-time corresponds to the interval in which the critical mass of nucleus is built up and the apparent rate constant is the rate with which the fibril itself is formed.
Samples were prepared freshly before each assay. […] The pH of the sample was adjusted to the desired value using appropriate amounts of concentrated NaOH and HCl.
The plate was sealed with Scotch Pad (Qiagen).
Each run was initiated by incubating the plate at the assay temperature for 10 min. The plate was measured every 20 minutes for a desired period of time. Between each measurement, the plate was shaken and heated as described.
The supernatant was filtered through a 0.22 μm filter and an aliquot was transferred to a HPLC vial.
The data set may be fitted to Eq. (1).

Row | SMILES | ThT assay [Lag time] | ThT assay [Recovery]
1 | CC(=O)N[C@@H](CCC(=O)N[C@@H](CCC(=O)N[C@@H](CCC(=O)N[C@@H](CCC(=O)NCCCC[C@H](NC(=O)[C@@H](NC(=O)[C@H](Cc1ccccc1)NC(=O)[C@H](CC(=O)O)NC(=O)[C@H](CCC(N)=O)NC(=O)[C@H](C)NC(=O)[C@H](CCCNC(=N)N)NC(=O)[C@H](CCCNC(=N)N)NC(=O)[C@H](CO)NC(=O)[C@H](CCC(=O)O)NC(=O)[C@H](CC(C)C)NC(=O)[C@H](Cc1ccc(O)cc1)NC(=O)[C@H](CCCCN)NC(=O)[C@H](CO)NC(=O)[C@H](Cc1ccc(O)cc1)NC(=O)[C@H](CC(=O)O)NC(=O)[C@H](CO)NC(=O)[C@@H](NC(=O)[C@H](Cc1ccccc1)NC(=O)[C@@H](NC(=O)CNC(=O)[C@H](CCC(N)=O)NC(=O)[C@H](CO)NC(=O)[C@@H](N)Cc1c[nH]cn1)[C@@H](C)O)[C@@H](C)O)C(C)C)C(=O)N[C@@H](Cc1c[nH]c2ccccc12)C(=O)N[C@@H](CC(C)C)C(=O)N[C@@H](CC(C)C)C(=O)N[C@@H](CC(N)=O)C(=O)N[C@H](C(=O)O)[C@@H](C)O)C(=O)O)C(=O)O)C(=O)O)C(=O)O [Example 17, N^ε24-[(4S)-4-[[(4S)-4-[[(4S)-4-[[(4S)-4-acetamido-4-carboxybutanoyl]amino]-4-carboxybutanoyl]amino]-4-carboxybutanoyl]amino]-4-carboxybutanoyl]-[Glu15,Lys24,Leu27]-Glucagon] | 45 h | 100%
2 | CC(=O)N[C@@H](CCC(=O)N[C@@H](CCC(=O)N[C@@H](CCC(=O)N[C@@H](CCC(=O)NCCCC[C@H](NC(=O)[C@@H](NC(=O)[C@H](Cc1ccccc1)NC(=O)[C@H](CC(=O)O)NC(=O)[C@H](CCC(N)=O)NC(=O)[C@H](C)NC(=O)[C@H](CCCNC(=N)N)NC(=O)[C@H](CCCNC(=N)N)NC(=O)[C@H](CO)NC(=O)[C@H](CC(=O)O)NC(=O)[C@H](CC(C)C)NC(=O)[C@H](Cc1ccc(O)cc1)NC(=O)[C@H](CCCCN)NC(=O)[C@H](CO)NC(=O)[C@H](Cc1ccc(O)cc1)NC(=O)[C@H](CC(=O)O)NC(=O)[C@H](CO)NC(=O)[C@@H](NC(=O)[C@H](Cc1ccccc1)NC(=O)[C@@H](NC(=O)CNC(=O)[C@H](Cc1c[nH]cn1)NC(=O)[C@H](CO)NC(=O)[C@@H](N)Cc1c[nH]cn1)[C@@H](C)O)[C@@H](C)O)C(C)C)C(=O)N[C@@H](Cc1c[nH]c2ccccc12)C(=O)N[C@@H](CC(C)C)C(=O)N[C@@H](CC(C)C)C(=O)N[C@@H](CC(N)=O)C(=O)N[C@H](C(=O)O)[C@@H](C)O)C(=O)O)C(=O)O)C(=O)O)C(=O)O [Example 19, N^ε24-[(4S)-4-[[(4S)-4-[[(4S)-4-[[(4S)-4-acetamido-4-carboxybutanoyl]amino]-4-carboxybutanoyl]amino]-4-carboxybutanoyl]amino]-4-carboxybutanoyl]-[His3,Lys24,Leu27]-Glucagon] | 45 h | 100%
